Source: article PMC2447299
Numbering of substitutions follows the chain as printed. Where two headings read alike, the source gives them in different places. Results are given in words; binding and its absence hold for the method and conditions named. Some binding calls cover weakened binding; strength is not graded here. For some of these results: Where a sequence is shown, tags or fusion partners need not be part of it. Values belong to the molecule of their own block, whether it stands above or below them.

Sequences of proteins named here, by UniProt entry; tags and fusion partners are left off. A change or cut given only in a name is not applied to a line headed by its entry. A line that says so, or that is headed by a name, gives the form on record, which may keep a tag or linker.
UniProt P51875: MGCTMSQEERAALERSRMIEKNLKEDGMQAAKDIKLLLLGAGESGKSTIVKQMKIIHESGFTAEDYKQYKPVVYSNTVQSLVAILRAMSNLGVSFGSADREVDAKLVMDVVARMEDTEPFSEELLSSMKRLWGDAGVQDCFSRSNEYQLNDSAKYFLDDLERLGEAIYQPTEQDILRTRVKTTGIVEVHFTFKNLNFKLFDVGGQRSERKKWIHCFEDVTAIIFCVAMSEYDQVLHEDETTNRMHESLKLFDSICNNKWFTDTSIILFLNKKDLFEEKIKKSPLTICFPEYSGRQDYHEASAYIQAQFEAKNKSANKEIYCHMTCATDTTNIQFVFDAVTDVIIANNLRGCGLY
GOA-1-QL (P51875, form named): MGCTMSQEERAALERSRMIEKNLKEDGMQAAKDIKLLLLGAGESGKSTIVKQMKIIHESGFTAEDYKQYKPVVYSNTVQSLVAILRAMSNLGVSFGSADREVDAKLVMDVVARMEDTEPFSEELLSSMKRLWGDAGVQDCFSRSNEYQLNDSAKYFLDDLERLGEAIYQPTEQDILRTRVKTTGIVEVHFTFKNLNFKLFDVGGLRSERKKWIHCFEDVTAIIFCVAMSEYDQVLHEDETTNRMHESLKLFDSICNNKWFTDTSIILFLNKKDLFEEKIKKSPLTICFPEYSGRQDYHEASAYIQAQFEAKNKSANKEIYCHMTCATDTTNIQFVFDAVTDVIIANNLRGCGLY

What was measured:
[1] = molecular target: T1, F44B9.6 (LIN-36) (C. elegans) (UniProt P34427); assay: two-hybrid; yeast mating assay of Figure 1, reversed configuration: candidate inserts as bait, G-alpha subunits or candidates as prey; growth on Leu-/Trp-/His-/Ade- medium
T1 sequence: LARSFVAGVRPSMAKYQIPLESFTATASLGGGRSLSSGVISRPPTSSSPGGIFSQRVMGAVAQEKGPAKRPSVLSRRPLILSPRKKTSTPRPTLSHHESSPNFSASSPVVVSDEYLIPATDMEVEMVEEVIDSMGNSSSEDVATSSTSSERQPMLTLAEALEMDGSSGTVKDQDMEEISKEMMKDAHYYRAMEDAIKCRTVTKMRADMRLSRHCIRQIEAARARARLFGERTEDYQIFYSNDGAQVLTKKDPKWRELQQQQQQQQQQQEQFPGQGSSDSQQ

[2] = molecular target: T2, F59H5.1 (C. elegans) (UniProt Q9TZI4); assay: as above
T2 sequence: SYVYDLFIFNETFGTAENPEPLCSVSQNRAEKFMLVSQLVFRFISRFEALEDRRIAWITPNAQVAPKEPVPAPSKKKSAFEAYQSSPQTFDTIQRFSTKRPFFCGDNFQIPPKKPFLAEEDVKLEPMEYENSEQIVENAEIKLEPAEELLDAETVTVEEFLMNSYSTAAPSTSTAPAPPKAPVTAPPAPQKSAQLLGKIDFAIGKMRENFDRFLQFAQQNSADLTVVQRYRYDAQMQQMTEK

[3] = molecular target: GOA-1-QL (C. elegans) (UniProt P51875); assay: two-hybrid; yeast mating assay of Figure 1: G-alpha subunits, wild type and GTPase-deficient (QL), as bait and candidates as prey; growth on Leu-/Trp-/His-/Ade- medium
[4] = molecular target: GOA-1 (C. elegans) (UniProt P51875); assay: two-hybrid; large yeast mating matrix: 197 candidate preys against the original baits and control baits (empty vector, p53, C. elegans G subunits, frameshifted GPA-1); AH109 bait x Y187 prey, 30 C, growth on LTHA- plates
[5] = molecular target: GOA-1 (C. elegans) (UniProt P51875); assay: two-hybrid; library screen: G-alpha subunit as bait (pGBK-T7), mixed stage C. elegans N2 cDNA library in pACT as prey; selection on plates lacking His, Trp, Leu, Ade and X-gal; rescued preys re-tested by mating with the original and control baits
[6] = molecular target: T3, GPA-13 (C. elegans) (UniProt Q9XTB2); assay: two-hybrid; yeast mating assay of Figure 1: G-alpha subunits, wild type and GTPase-deficient (QL), as bait and candidates as prey; growth on Leu-/Trp-/His-/Ade- medium
T3 sequence: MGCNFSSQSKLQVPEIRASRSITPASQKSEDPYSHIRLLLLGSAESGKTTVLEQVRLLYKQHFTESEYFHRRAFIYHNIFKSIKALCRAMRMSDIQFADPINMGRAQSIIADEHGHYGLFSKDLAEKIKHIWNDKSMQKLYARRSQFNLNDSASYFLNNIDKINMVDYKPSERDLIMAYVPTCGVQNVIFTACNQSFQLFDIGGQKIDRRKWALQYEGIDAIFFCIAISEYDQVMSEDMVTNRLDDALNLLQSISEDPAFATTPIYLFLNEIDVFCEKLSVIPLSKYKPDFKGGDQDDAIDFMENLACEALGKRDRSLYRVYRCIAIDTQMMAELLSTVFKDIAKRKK

[7] = molecular target: T3, GPA-13 (C. elegans); assay: two-hybrid; large yeast mating matrix: 197 candidate preys against the original baits and control baits (empty vector, p53, C. elegans G subunits, frameshifted GPA-1); AH109 bait x Y187 prey, 30 C, growth on LTHA- plates
[8] = molecular target: T3, GPA-13 (C. elegans); assay: two-hybrid; library screen: G-alpha subunit as bait (pGBK-T7), mixed stage C. elegans N2 cDNA library in pACT as prey; selection on plates lacking His, Trp, Leu, Ade and X-gal; rescued preys re-tested by mating with the original and control baits
[9] = molecular target: T4, GPA-7 fused to the transmembrane domain of Pat-3 (pRP2234) (C. elegans) (UniProt Q21917); assay: membrane recruitment assay; reversed experiment: GFP-NHR-22 co-expressed with GPA-7 fused to the transmembrane domain of Pat-3 in C. elegans muscle cells; not shown
T4 sequence: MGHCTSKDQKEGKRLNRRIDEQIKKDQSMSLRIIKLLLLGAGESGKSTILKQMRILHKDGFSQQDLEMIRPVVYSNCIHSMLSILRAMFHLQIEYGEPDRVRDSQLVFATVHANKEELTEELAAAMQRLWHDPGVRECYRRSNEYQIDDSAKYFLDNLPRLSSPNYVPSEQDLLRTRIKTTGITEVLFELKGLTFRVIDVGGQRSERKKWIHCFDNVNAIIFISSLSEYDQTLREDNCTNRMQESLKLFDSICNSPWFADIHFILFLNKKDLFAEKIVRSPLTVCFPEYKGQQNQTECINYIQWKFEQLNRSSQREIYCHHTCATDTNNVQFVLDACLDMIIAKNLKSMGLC

[10] = molecular target: T1, F44B9.6 (LIN-36) (C. elegans); assay: two-hybrid; yeast mating assay of Figure 1, reversed configuration: candidate inserts as bait, G-alpha subunits or candidates as prey; growth on Leu-/Trp-/His-/Ade- medium; remark: listed apart in the source
[11] = molecular target: T5, GPA-7 (C. elegans) (UniProt Q21917); assay: two-hybrid; yeast mating assay of Figure 1: G-alpha subunits, wild type and GTPase-deficient (QL), as bait and candidates as prey; growth on Leu-/Trp-/His-/Ade- medium
T5 sequence: T4 sequence

[12] = molecular target: T6, GPA-7-QL (C. elegans) (UniProt Q21917); assay: as above
T6 sequence: T4 sequence with Q203L

[13] = molecular target: T6, GPA-7-QL (C. elegans); assay: two-hybrid; large yeast mating matrix: 197 candidate preys against the original baits and control baits (empty vector, p53, C. elegans G subunits, frameshifted GPA-1); AH109 bait x Y187 prey, 30 C, growth on LTHA- plates
[14] = molecular target: T6, GPA-7-QL (C. elegans); assay: two-hybrid; library screen: G-alpha subunit as bait (pGBK-T7), mixed stage C. elegans N2 cDNA library in pACT as prey; selection on plates lacking His, Trp, Leu, Ade and X-gal; rescued preys re-tested by mating with the original and control baits

binding [1]: binds
binding [2]: binds
Molecule: GOA-1 (from UniProt P51875 1-354)

binding [9]: binds
B4: NHR-22 fused to GFP (pRP2228) (protein, UniProt Q09587 1-579)
chain: MSTDLLYEYFYPPTDLFKNTFEDVPPSPESLDVGDSLGSSPSYDLGFQPSFDIDFCIWKEGSSSPPPESNHLPEIVNKASTSPRGMPSPLTDSRSCHVCSSPTANTLHFGGRSCKACAAFFRRSVSMSMTYECIGTGDDTNPCRTHYELRMICRHCRFIKCLDAGMRRELVQARKEETRVAKRRSKGLVVSKKEDDDVESSYDEYVNTYTNVQDSSPKMESGINEMTIPESYLSPDPSSSQPLDMTVTPPPLHRSTPSILLTPATGDRMHCQRVLSNSPPFDIHQASTSHAGFIQHVQFYPVVEVENKIFELVDHYVRTEASLNDRRKIMYTDTQIRDVFDTTCECPYENHQLKPFNYKSFCGFVKHDFVMILDYVNQFPEFQALHKNDKNVVYRMACAVDSMLASAYYSYKVGIEKERLILFNGDYINMNPIPISGDEPGAGTEFQTPQEHEKYKTLMPLKLKQYFDLAIPFARLEVSFEEYVLLKALIIWQISNYRLLEEGRAICARQRDTIVQALHKVVEERGDEDPAIRVGQLLLSMSYITEQVQAMTNSYLVMTFFDVVSCDSIMYDLLSFRDD

The next lines start with the molecule.

B1: F59H5.1 (domain or fragment, UniProt Q9TZI4 501-742)
chain: T2 sequence
binding [3]: no binding
binding [4]: binds
binding [5]: binds

B2: Y45G5AM.1 (domain or fragment, UniProt G5EEM0 15-400)
chain: CLVCQDFASGYHYGVPSCVGCKTFFRRTIMKKQKYICQFEGNCPVDKTIRCACRYCRFEKCLSVGMDRNALQQNRDPIGYTKRTRRPKKELKTTSDCSSDEGASTPPSVSPLQLSPPPISPLLFQAAPLKPRRCILQTLAEREKCANDLRLSEYLPIRSLHEALCSKALLNDTAFLEKWGQPSERHQIFDLRFVNHDDYHYWHERDWFLLTEYAKTFDVFEALDYQDKAELVRHAAITVPVLVQVWNSPDYGPDTIVFPDGAYFDRTPEPTRPAGLNRKKYQMLDLVLKPFRDLQLDATEFAAFKAVTFLNPDADISLPARKLVNNERVRITKQLYGYMAMKDDVDTAIERFARLVLMGTSMSKMACESKEAVWIADFFENIGFSA
binding [6]: binds
binding [7]: binds
binding [8]: binds

B3: F15D3.1, Dystrophin (DYS-1) (domain or fragment, UniProt Q9TW65 1948-2241)
chain: VREVPVDEYEETANISSGDELQDHKISSAVPDSESEIASMFEVLDSIEDSHTNFEEFPFDYLDSADDDLKKTLLKLESCEKTLAKNEMTINIAQAENARERITMLRQMALQRKDKLPKFNEEWNAMQELIQLADALVDEAERYESDQIPQMDRKSAPNVLGELRKRVANAEGPVIDLVKKLSQLVPRMQEDSPKSQDIRQKVYGIEDRFRRVGQAEGAAISKALSSALTEPELKLELDEVVRWCEMAEKEAAQNVNSLDGDGLEKLDGRLAQFTKELQERKDDMVQLEMAKNMI
binding [7]: binds
binding [8]: binds

B5: F44B9.6 (LIN-36) (domain or fragment, UniProt P34427 682-962)
chain: T1 sequence
binding [10]: binds weakly
binding [3]: no binding
binding [4]: binds
binding [5]: binds

B6: K06A1.4 (NHR-22) (domain or fragment, UniProt Q09587 271-579)
chain: CQRVLSNSPPFDIHQASTSHAGFIQHVQFYPVVEVENKIFELVDHYVRTEASLNDRRKIMYTDTQIRDVFDTTCECPYENHQLKPFNYKSFCGFVKHDFVMILDYVNQFPEFQALHKNDKNVVYRMACAVDSMLASAYYSYKVGIEKERLILFNGDYINMNPIPISGDEPGAGTEFQTPQEHEKYKTLMPLKLKQYFDLAIPFARLEVSFEEYVLLKALIIWQISNYRLLEEGRAICARQRDTIVQALHKVVEERGDEDPAIRVGQLLLSMSYITEQVQAMTNSYLVMTFFDVVSCDSIMYDLLSFRDD
binding [11]: binds
binding [12]: binds
binding [13]: binds
binding [14]: binds
